# Out of some 380,000 compounds screened, about 1,300 (0.34%) were called active. Inconclusive means that the source gave no clear call. Such entries were picked first, then a sample of the others.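 Rule for the calls: active = drop in luminescence signal, shown as inhibition above about 50% in the replicate tests (limit read from the data, passing the limit was not always enough); inconclusive = probably only some replicates passing the limit; inactive = the rest.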
# Tested on: Drosophila bursicon receptor LGR2 (rickets)
# Assay: LGR2 cAMP reporter signal reduction – cell-based, HEK293, CRE-luciferase reporter, bursicon stimulation, primary screen (AID 720647);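 note: agonist challenge used bursicon conditioned medium at about half maximal strength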
# Conditions: bursicon-stimulated, 4 h, at 9.99 µM, active compounds read high
row,Compound,inhibition
1,CC(=O)OC(C)(C)/C=C/C(=O)C(C)(O)C1C(O)CC2(C)C3CC=C4C(CC(O)C(=O)C4(C)C)C3(C)C(=O)CC12C (configuration not stated),active: 89%
2,C[C@@H]1O[C@@H](O[C@H]2C[C@@H](O)[C@]3(CO)[C@H]4[C@H](O)C[C@]5(C)[C@@H](C6COC(=O)C6)CC[C@]5(O)[C@@H]4CC[C@]3(O)C2)[C@H](O)[C@H](O)[C@H]1O (some centres not stated),active: 81.2%
3,CCCCCN1C(=O)c2ccccc2[C@@]2(C(=O)OCC)Cc3cc(Cl)ccc3[C@@H]12,inconclusive: 43.3%
4,CC1OC(OC2CC(O)C3(CO)C4C(O)CC5(C)C(C6=CC(=O)OC6)CCC5(O)C4CCC3(O)C2)C(O)C(O)C1O (configuration not stated),active: 89.6%
5,O=C1NC2C(O)C(O)C(O)C(O)C2c2cc3c(c(O)c21)OCO3 (configuration not stated),active: 103%
6,c1ccc(-c2cc(-c3ccccc3)[n+](-c3ccccc3)c(-c3ccccc3)c2)cc1,active: 103%
7,O=C(C(=O)N1CCOCC1)c1cn(CCCOc2ccccc2)c2ccccc12,inconclusive: -30.6%
8,O=C(CCN1CC2CCC(CC2)C1)c1cccs1,inconclusive: -1.5%
9,Cc1cc(C)cc(N2C(=O)NC(=O)/C(=C/c3cccn3-c3ccc(Cl)cc3)C2=O)c1,inconclusive: 60.5%
10,CNc1cc(Cl)c2nonc2c1[N+](=O)[O-],active: 104%
11,O=C(O)c1nn(Cc2ccc(Cl)cc2Cl)c2ccccc12,active: 63%
12,CCOC(=O)C1(CCc2ccccc2)CCN(Cc2cccc3cnccc23)CC1,inconclusive: 57.9%
13,COc1ccc(-n2nnnc2C(c2cccc(OC)c2OC)N2CCC(n3c(=O)[nH]c4ccccc43)CC2)cc1 (configuration not stated),inconclusive: 42.1%
14,Cc1cc(OC(=O)CCNC(=O)OC(C)(C)C)c2c3c(c(=O)oc2c1)CCC3,inconclusive: 28.9%
15,CCOC(=O)[C@]12Cc3cc(Cl)ccc3[C@H]1N(C)C(=O)c1cc(OC)ccc12,inconclusive: 46.2%
16,O=C1NC(=O)N(C2CCCCC2)C(=O)C1C1c2ccccc2C(=O)N1Cc1ccccc1 (configuration not stated),inactive: 4.83%
17,COc1ccc(-n2nnnc2C(CCc2ccccc2)N2CCC(n3c(=O)[nH]c4ccccc43)CC2)cc1 (configuration not stated),active: 101%
18,CCOC(=O)[C@]12Cc3cc(OC)ccc3[C@H]1N(C(C)C)C(=O)c1cc(OC)ccc12,inconclusive: 63.2%
19,CCOC(=O)[C@]12Cc3c(cc(OC)c(OC)c3OC)[C@H]1N(C1CCCCC1)C(=O)c1ccccc12,inconclusive: 65.2%
20,NCCc1ccc(OCc2ccccc2)c(OCc2ccccc2)c1,active: 87.7%
21,C[C@@H]1O[C@@H](O[C@H]2C[C@@H](O)[C@]3(CO)[C@@H]4C(CC[C@]3(O)C2)[C@@]2(O)CC[C@H](C3COC(=O)C3)[C@@]2(C)C[C@H]4O)[C@H](O)[C@H](O)[C@H]1O (some centres not stated),active: 73.1%

row,Compound,inhibition
1,O=c1c2ccccc2nc(/C=C/c2ccc([N+](=O)[O-])o2)n1-c1ccc(O)cc1,active: 53.9%
2,Cc1ccc(/C=C2\C(=O)NC(=S)N(c3ccccc3F)C2=O)s1,active: 87.6%
3,C[CH2][Hg][S]c1ccccc1C(=O)O,active: 95.6%
4,Cc1ccccc1CN1Cc2cnnn2-c2ccccc2C1C#N (configuration not stated),inconclusive: 67.1%
5,CCOC(=O)[C@]12Cc3cc(OC)ccc3[C@H]1N(CC(=O)OC)C(=O)c1cc(OC)ccc12,inconclusive: 41.8%
6,CN(C)C(=O)Oc1ccc(OCc2nc3ccccc3[nH]2)cc1,active: 52.7%
7,COC(=O)C1CN(C#N)N(c2ccc(Cl)cc2)C12c1ccccc1-c1ccccc12 (configuration not stated),active: 99.6%
8,CCOC(=O)[C@]12Cc3ccccc3[C@H]1N(C1CCCCC1)C(=O)c1cc(OC)ccc12,inconclusive: 42.9%
9,CCOC(=O)[C@]12Cc3cc(OC)ccc3[C@H]1N(C(C)C)C(=O)c1ccccc12,inconclusive: 57.7%
10,CC1=CC2OC3CC4OC(=O)C=CC=CC(C(C)O)OCC(O)C(C)CC(=O)OCC2(CC1O)C4(C)C31CO1 (configuration not stated),active: 107%
11,Cc1nc2ccc(Br)cc2c(=O)n1-c1ccc([N+](=O)[O-])c(C(F)(F)F)c1,inconclusive: 40.5%
12,Clc1cccc(N2Cc3cc(-c4ccccc4)ccc3-n3nncc3C2)c1,inconclusive: 19.4%
13,CC(=O)OC(C)(C)/C=C/C(=O)C(C)(O)C1[C@H](O)C[C@@]2(C)C3CC=C4C(CC[C@@H](O)C4(C)C)[C@]3(CO)C(=O)C[C@]12C (some centres not stated),active: 73.2%
14,NC(N)=N/N=C/c1cn(-c2ccccc2)nc1-c1cccs1,active: 106%
15,CCOc1c(Cl)cc(CNCCc2c[nH]c3ccccc23)cc1OC,inactive: 6.84%
16,O=c1[nH]c(=S)[nH]c(O)c1/C=C1/C=c2ccccc2=N1,inconclusive: 57.9%
17,CC1=CC(C)CC(C)OC(=O)CC(c2ccc(O)cc2)NC(=O)C(Cc2c(Br)[nH]c3ccccc23)N(C)C(=O)C(C)NC(=O)C(C)C1 (configuration not stated),active: 81.7%
18,CCOC(=O)[C@]12Cc3cc(C)ccc3[C@H]1N(C(C)C)C(=O)c1ccccc12,active: 69%
19,O=C(NC(=O)c1c(F)cccc1F)Nc1cc(Cl)c(F)c(Cl)c1F,inactive: -5.19%
20,Nc1ncnc2c1ccn2[C@@H]1O[C@H](CO)[C@@H](O)[C@H]1O,active: 93.5%
21,COc1cc2c(cc1OC)CN(c1ccc([N+](=O)[O-])c(C(F)(F)F)c1)CC2,active: 93.4%
